The results in this text go back to the supplement of paper PMC11417369.

The list shows a part of the results.

For the assay, the system named is PfHDP1 homeodomain (GST-tagged). The assay can be described thus: gcPBM binding intensity (ln(normalized median fluorescence intensity)); higher = stronger DNA binding. A digest of the protocol: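 The binding buffer was 1× PBS containing 1% milk, 0.2 mg/ml BSA, 0.5% salmon testes DNA and 0.03% Triton X-100. In it, GST-tagged P. falciparum DNA-binding domains expressed in E. coli were applied for 1 h to an Agilent 4 × 180k array of primer-extended double-stranded 36-bp intergenic genomic probes plus negative controls. Binding intensity, read with Alexa488 anti-GST antibody and a 488 nm scan, is the highest Masliner-normalised natural-log median intensity across replicate spots of either probe orientation.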
Turning to “TATATATTAATCAAAGTGCAATAATAAAATAAAAGT [GTGCAC_site9490]”, the “gcPBM binding intensity (ln)” value was 8.92.
“CTCTAATTAATATTTGTACACACATATTTAACCTAC [CACACA_site9043]”: the “gcPBM binding intensity (ln)” value is 6.78.
The figure for “TCAAATTACGTAAGAACATGCGATATAAGAAATACG [TGCATGCA_site691]” is 6.96; for “TAACTTTATTTTCCTGTACACACATTTGACATATTA [CACACA_site9116]” it is 7.01; for “AGCAGACACCAACACACACACATATATATATATATA [CACACA_site337]” it is 9.45.
Then “TTTATACAAAAGAACAGTACAATAAAGGATTTATGA [XGTACX_site811]”, with 6.24; and “TTTTTTTTTATATATACACACAATAAATAAATATAA [CACACA_site2954]”, with 6.5.
The figure for “TACATAAATACATACATACACACATATATATATATA [CACACA_site2105]” is 9.29; for “CTTTTTTATTTTTCAACACACATAATAAATTTCTAT [CACACA_site1037]” it is 6.68.
“GGTTAAAAAAAGCATACACACTATCCTCTTTGCTCT [CACACA_site7246]”: the “gcPBM binding intensity (ln)” value was found to be 7.14.
Then “ATATTTTACAAATGCACACATAATTTTTTTTTTTTT [CACACA_site2763]”, with 10.5; and “GAACCTTTAAAATACACACCCAAATCCTTTGAAATA [CACACA_site3630]”, with 6.5.
Then “AAATTAAACAATAAATGTACATATATATTTGTATAT [XGTACX_site1092]”, with 6.49.
Then “ATAAAAAATAAATAAGGTACAGAACATTTATACATT [XGTACX_site1783]”, with 6.58; and “AACAAGGTATTAGGGTGTACTATATATATTTATATT [XGTACX_site7776]”, with 6.44.
In the case of “AATAAAATATAAACATTATATATATATATATATATA [GTGCAC_negctrl_site58]”, the “gcPBM binding intensity (ln)” value worked out at 9.44.
Regarding “ATTTTTTCTTTTTTTTTTCCGTTTTTTTGGACATTT [CACACA_negctrl_site1174]”, the “gcPBM binding intensity (ln)” value came out at 6.24.
Then “TAAAGGAGCCTATGAACACACACATGTACTTATATT [CACACA_site9351]”, with 6.42; and “AATTGTTTGTTTGGGTGTACATGGTTCTATATAAAT [XGTACX_site7940]”, with 7.07; and “AATACAACATAATGAAGTACTGTATTTTATATTACT [XGTACX_site4885]”, with 6.12.
Regarding “TAATTTGAACGGTACAGTACTCTTTTTCTTTTTCAT [XGTACX_site5534]”, the “gcPBM binding intensity (ln)” value is 6.22.
The figure for “ATATATTTTTTCAATTGTACGTTTTAATAATATTTA [XGTACX_site2130]” is 6.7.
The figure for “TTTCTTTGAATAAATACACACGAGAAATGAAAGTAG [CACACA_site8490]” is 7.2; for “ATGAAATCTTTAGAATATAGATGATGTTATTTAATT [XGTACX_negctrl_site511]” it is 6.08.
Then “ATTAAAATGGTATGTGCGCACATAATATATATATGT [GTGCAC_site9572]”, with 9.81; and “ACATTGACATGTCGAAGTACTCAAGAAGCATACAAT [XGTACX_site3948]”, with 6.52.
Take “ATATAAATGATATGTACACACATTTATATTTATAAA [CACACA_site7600]”: the “gcPBM binding intensity (ln)” value worked out at 6.41.
Then “ACTCTATACATCTAATGTACATGGAAAAAAAAATTC [XGTACX_site733]”, with 6.78.
Turning to “TGGAAAATTATTAACACACACATATAAATATATATA [CACACA_site46]”, the “gcPBM binding intensity (ln)” value came out at 6.49.
The figure for GTAATAAGAATTATAGTGCAATGTAATACATTTATA is 8.07; for “TTCTTACATAAAATATCACACACATAAAAAAACAAT [CACACA_site8576]” it is 7.03; for “TTTATTACCATATTTTGTACACACATCTTTATCTCA [XGTACX_site6842]” it is 7.34.
With “GCAAAATTTCCTAAGGTGCTTTTATTTTACACCGTT [GTGCAC_site9923]”, the “gcPBM binding intensity (ln)” value stood at 6.49.
With “AATGGGTTAGCACATACACACCAATATATTATAGAT [CACACA_site7444]”, the “gcPBM binding intensity (ln)” value was 6.71.
The figure for “CTTTTATTGCTCTATATGCACACCTTAATTCTTCAT [CACACA_site2195]” is 10.5; for “AAAACCTAAAAGTCTTAAATTTTAAATATACCTACA [GTGCAC_negctrl_site492]” it is 6.15.
The figure for “CAAAATATAAAAACATGTACATAAATATTAACGAAT [XGTACX_site2380]” is 6.95; for “ATATGTTTATTAAATGCATGTCAAGACTTAAGATAT [TGCATGCA_site329]” it is 6.64; for “TCATCCACATATTGTAGTACAAGATAATTGTTTATT [XGTACX_site1634]” it is 6.65.
Then AAAAATACAATTTTCTTGCACTTTGTTGCATTGTAA, with 9.77; and “AACATATACACGAACACACACACATATAAATAAATA [CACACA_site6380]”, with 7.24; and “AAAATACATAAACGTTCACACATTGAAGATCACAAG [CACACA_site5347]”, with 6.45.
With TAGGTACATAAATTGGTGCAAAGTGTACATATATAT, the “gcPBM binding intensity (ln)” value stood at 10.8.
As for “TTTAATACTTTTTTCTGTACACACTTGATTTACTAT [XGTACX_site5925]”, the “gcPBM binding intensity (ln)” value came out at 6.65.
